Our source for the response values is PMC7078472.

For this assay, the target named is Homo sapiens ATP synthase subunit c (HsATPc) prey for MYTH (NubG-HA) (UniProt P05496). Nature of the assay: MYTH (membrane yeast two-hybrid) quantitative β-Gal activity assay. Conditions: yeast strain NMY51; n = 3; 6 colonies for each independent experiment; parent: est. 140; read off a plot.

On to “Homo sapiens MCU (HsMCU) bait for MYTH (Cub-LexA-VP16) (from UniProt Q8NE86) TMH1 replaced with WALP ([…])”, for which the response was 25 units.
